Target: T1, Bovine, dephosphorylated, Myelin Basic Protein (MBP), P02687
T1 chain: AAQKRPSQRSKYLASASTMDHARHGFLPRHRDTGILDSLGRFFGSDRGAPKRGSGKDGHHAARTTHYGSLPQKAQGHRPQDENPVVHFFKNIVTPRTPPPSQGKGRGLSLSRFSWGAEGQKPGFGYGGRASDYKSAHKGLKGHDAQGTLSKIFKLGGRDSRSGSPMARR

B1: ABL1 (protein)
chain: MLEICLKLVGCKSKKGLSSSSSCYLEEALQRPVASDFEPQGLSEAARWNSKENLLAGPSE[about 60 residues not given here]LEKHSWYHGPVSRNAAEYLLSSGINGSFLVRESESSPGQRSISLRYEGRVYHYRINTASDGKLYVSSESRFNTLAELVHHHSTVADGLITTLHYPAPKRNKPTVYGVSPNYDKWEMERTDITMKHKLGGGQYGEVYEGVWKKYSLTVAVKTLKEDTMEVEEFLKEAAVMKEIKHPNLVQLLGVCTREPPFYIITEFMTYGNLLDYLRECNRQEVNAVVLLYMATQISSAMEYLEKKNFIHRDLAARNCLVGENHLVKVADFGLSRLMTGDTYTAHAGAKFPIKWTAPESLAYNKFSIKSDVWAFGVLLWEIATYGMSPYPGIDLSQVYELLEKDYRMERPEGCPEKVYELMRACWQWNPSDRPSFAEIHQAFETMFQESSISDEVEKELGKQGVRGAVSTLLQAPELPTKTRTSRRAAEHRDTTDVPEMPHSKGQGESDPLDHEPAVSPLLPRKERGPPEGGLNEDERLLPKDKKTNLFSALIKKKKKTAPTPPKRSSSFREMDGQPERRGAGEEEGRDISNGALAFTPLDTADPAKSPKPSNGAGVPNGALRESGGSGFRSPHLWKKSSTLTSSRLATGEEEGGGSSSKRFLRSCSASCVPHGAKDTEWRSVTLPRDLQSTGRQFDSSTFGGHKSEKPALPRKRAGENRSDQVTRGTVTPPPRLVKKNEEAADEVFKDIMESSPGSSPPNLTPKPLRRQVTVAPASGLPHKEEAGKGSALGTPAAAEPVTPTSKAGSGAPGGTSKGPAEESRVRRHKHSSESPGRDKGKLSRLKPAPPPPPAASAGKAGGKPSQSPSQEAAGEAVLGAKTKATSLVDAVNSDAAKPSQPGEGLKKPVLPATPKPQSAKPSGTPISPAPVPSTLPSASSALAGDQPSSTAFIPLISTRVSLRKTRQPPERIASGAITKGVVLDSTEALCLAISRNSEQMASHSAVLEAGKNLYTFCVSYVDSIQQMRNKFAFREAINKLENNLRELQICPATAGSGPAATQDFSKLLSSVKEISDIVQR
MBP Kinase Activity: Weak

Reference: patent publication US20090099029
